The list shows a part of the results.
B1: PhoQ; a variant is named by its letters at X, in order, P23837 (parent)
chain: MKKLLRLFFPLSLRVRFLLATAAVVLVLSLAYGMVALIGYSVSFDKTTFRLLRGESNLFYTLAKWENNKLHVELPENIDKQSPTMTLIYDENGQLLWAQRDVPWLMKMIQPDWLKSNGFHEIEADVNDTSLLLSGDHSIQQQLQEVREDDDDAEMTHSVAVNVYPATSRMPKLTIVVVDTIPVELKSSYMVWSWFIYVLSANLLLVIPLLWVAAWWSLRPIEALAKEVRELEEHNRELLNPATTRELTSLVRNLNRLLKSERERYDKYRTTLTDLTHSLKTPLXXLQXXLRSLRSEKMSVSDAEPVMLEQISRISQQIGYYLHRASMRGGTLLSRELHPVAPLLDNLTSALNKVYQRKGVNISLDISPEISFVGEQNDFVEVMGNVLDNACKYCLEFVEISARQTDEHLYIVVEDDGPGIPLSKREVIFDRGQRVDTLRPGQGVGLAVAREITEQYEGKIVAGESMLGGARMEVIFGRQHSAPKDE

Variants of: B1
Assay: enrichment ratio after two sorts for PhoP signalling (ratio (wild type AVST 3.29)); higher = more functional
Settings: with PhoP (E. coli)

Variant | enrichment ratio
MDVN | ≤ 0.25
TVYL | 2.97
DHQF | ≤ 0.25
HSQT | ≤ 0.25
MIDP | ≤ 0.25
WGPS | ≤ 0.25
FYLT | ≤ 0.25
YYHF | ≤ 0.25
DKPW | ≤ 0.25
IGAT | ≤ 0.25
RAMG | ≤ 0.25
CRGL | ≤ 0.25
KACV | ≤ 0.25
AWMI | ≤ 0.25
IDQT | ≤ 0.25
IVAK | ≤ 0.25
EFSG | ≤ 0.25
DFAP | ≤ 0.25
FRYM | ≤ 0.25
AGRR | ≤ 0.25
NAIQ | ≤ 0.25
SCTF | 9.43
IPTL | ≤ 0.25
GVIY | ≤ 0.25
TSNS | 12.8

Variant | enrichment ratio
QAVD | ≤ 0.25
WQTI | ≤ 0.25
HECI | 6.73
PPTP | ≤ 0.25
PISK | ≤ 0.25
ECSC | ≤ 0.25
ENFV | ≤ 0.25
IRFC | ≤ 0.25
KIVG | ≤ 0.25
WKYA | ≤ 0.25
HWPH | ≤ 0.25
RRVV | ≤ 0.25
MFMQ | ≤ 0.25
MFSN | 1.34
MALI | 10.9
RHID | ≤ 0.25
WMRI | ≤ 0.25
DFES | ≤ 0.25
QQSM | 13.3
LAYN | ≤ 0.25
HQPW | ≤ 0.25
GQAK | ≤ 0.25
ICNK | ≤ 0.25
APDK | ≤ 0.25
EFWA | ≤ 0.25

Variant | enrichment ratio
AWKF | ≤ 0.25
TTYS | 3.99
IMYW | ≤ 0.25
LYSG | ≤ 0.25
DMKC | ≤ 0.25
RQAF | ≤ 0.25
ALQW | ≤ 0.25
KEIA | ≤ 0.25
LTWH | ≤ 0.25
HSNM | ≤ 0.25
IKIQ | ≤ 0.25
NHKS | ≤ 0.25
RRLS | ≤ 0.25
GNPR | ≤ 0.25
HIFQ | ≤ 0.25
MFCQ | ≤ 0.25
YRAT | ≤ 0.25
SCCS | 9.76
LTGS | ≤ 0.25
IIHW | ≤ 0.25
RWGN | ≤ 0.25
WPNP | ≤ 0.25
WNRT | ≤ 0.25
KAKC | ≤ 0.25
INEH | ≤ 0.25

Variant | enrichment ratio
FFPI | ≤ 0.25
KWAF | ≤ 0.25
PLWI | ≤ 0.25
IWGF | ≤ 0.25
PRLM | ≤ 0.25
VKHW | ≤ 0.25
LGTA | ≤ 0.25
SRCV | 5.55
KSVC | ≤ 0.25
DRRH | ≤ 0.25
QSRQ | ≤ 0.25
RQPM | ≤ 0.25
PQWN | ≤ 0.25
GICE | 6.08
CSVI | ≤ 0.25
IAVS | ≤ 0.25
QSQW | ≤ 0.25
VYIV | ≤ 0.25
AIIM | 7.97
SFML | 1.95
AQRM | ≤ 0.25
LFEF | ≤ 0.25
PRFW | ≤ 0.25
RSNR | ≤ 0.25
RIWP | ≤ 0.25

Variant | enrichment ratio
SWDR | ≤ 0.25
VDNR | ≤ 0.25
DQHG | ≤ 0.25
MWLQ | ≤ 0.25
VPAT | ≤ 0.25
ETWG | ≤ 0.25
ELFV | ≤ 0.25
KFPH | ≤ 0.25
FCKA | ≤ 0.25
FHEQ | ≤ 0.25
KTSW | ≤ 0.25
LGND | ≤ 0.25
NDHR | ≤ 0.25
NLCV | ≤ 0.25
MNHG | ≤ 0.25
SETW | 3.01
KKTT | ≤ 0.25
MKDF | ≤ 0.25
ESTV | ≤ 0.25
NTWK | ≤ 0.25
RVRH | ≤ 0.25
FPQR | ≤ 0.25
TPRG | ≤ 0.25
RDEY | ≤ 0.25
QLAT | ≤ 0.25

Variant | enrichment ratio
SSPV | 1.03
NHDL | ≤ 0.25
FNTD | ≤ 0.25
EGFE | ≤ 0.25
YMPK | ≤ 0.25
KPKY | ≤ 0.25
IDIV | ≤ 0.25
GMEK | ≤ 0.25
QLCQ | ≤ 0.25
GAST | ≤ 0.25
PLCE | ≤ 0.25
NING | ≤ 0.25
IYFD | ≤ 0.25
PHVL | ≤ 0.25
FRRI | ≤ 0.25
YGMC | 0.496
WCTL | ≤ 0.25
KHSI | ≤ 0.25
VICP | ≤ 0.25
YWPY | ≤ 0.25
KIIC | ≤ 0.25
WIGF | ≤ 0.25
FLSD | ≤ 0.25
VLEY | ≤ 0.25
NWGS | ≤ 0.25

Variant | enrichment ratio
TTAI | 3.18
SKRY | ≤ 0.25
IVDH | ≤ 0.25
SPIQ | ≤ 0.25
NDLC | ≤ 0.25
VKGM | ≤ 0.25
METE | ≤ 0.25
SIMP | ≤ 0.25
HHVN | ≤ 0.25
QDWQ | ≤ 0.25
GKQA | ≤ 0.25
TPVD | ≤ 0.25
FFQY | ≤ 0.25
HPRL | ≤ 0.25
YWET | ≤ 0.25
SQNC | ≤ 0.25
LSHE | ≤ 0.25
DLRL | ≤ 0.25
YNEC | ≤ 0.25
EGNA | ≤ 0.25
RNYG | ≤ 0.25
RVVP | ≤ 0.25
ERTD | ≤ 0.25
RAYE | ≤ 0.25
QEYM | 24.7

Variant | enrichment ratio
MMYK | ≤ 0.25
MDWF | ≤ 0.25
PFHI | ≤ 0.25
SKEV | ≤ 0.25
IWPF | 0.394
RKRF | ≤ 0.25
GSRL | ≤ 0.25
PTKL | ≤ 0.25
AMMA | ≤ 0.25
SALK | 15.2
TDWC | ≤ 0.25
KTMC | ≤ 0.25
GYAF | ≤ 0.25
EFTM | ≤ 0.25
GTMV | 7.05
SKYN | ≤ 0.25
PTNA | ≤ 0.25
IYYT | ≤ 0.25
SAYW | ≤ 0.25
IYAP | ≤ 0.25
